ChEMBL document CHEMBL4888484, “Replenishing the malaria drug discovery pipeline: Screening and hit evaluation of the MMV Hit Generation Library 1 (HGL1) against asexual blood stage Plasmodium falciparum ,using a nano luciferase reporter read-out” (2022)
Values joined by “and” are separate entries in the source; they are usually repeats but may differ in a detail not shown here. Identical values can stand only once. The campaign covered roughly 150,000 compounds. About 540 (0.36%) showed an effect of 50% or more. The list shows a part of the results.

System: Plasmodium falciparum
Experiment: Primary screen in NF54 nanoGlo assay, in single point, at 2uM, 72h; a lower Z score goes with more inhibition
Type: functional, Erythrocyte
Settings: timepoint 72 hour

| SMILES | % Inhibition | Z score | % Inhibition (2 µM) |
| --- | --- | --- | --- |
| COc1ccc(-c2nc(CN=C(N)Nc3ccc(C)cc3)n[nH]2)cc1 | -1% | 0.15 |  |
| CC(C)CC(=O)Nc1nnc(CCCOc2ccccc2)s1 | -8% | 1.54 |  |
| COc1ccc(NC(=O)c2sc3ncnc(N4CCc5ccccc5C4)c3c2C)cc1Cl | 29% | -3.37 |  |
| CCOc1ccc(-c2c[nH]c(-c3nccn3CC)n2)cc1OCC | 8% | -1.44 |  |
| CCc1cccc(OC2CN(Cc3cc(C#N)n(C)c3C)C2)c1 | -19% | 3.53 |  |
| COc1ccc(OC2CCN(C3CCCC3)CC2)c(C(=O)N2CCCC[C@@H]2CCCO)c1 | -8% | 1.11 |  |
| Cc1cccc(C)c1NC(=O)CN1C(=O)NC2(CCOCC2)C1=O | 5% | -0.94 |  |
| Cc1nc2ccccc2n1[C@H]1CCN(C(=O)c2ccc(C(F)(F)F)cc2)C1 | -9% | 1.18 |  |
| Cc1oncc1C(=O)NCCn1ccnc1-c1ncccn1 | -15% | 1.97 |  |
| Cn1nc(-c2nnc(-c3ccc(F)cc3)o2)c2c1CCN(S(=O)(=O)c1cccc3nsnc13)C2 | -13% | 1.53 |  |
| CCOC1CC(NC(=O)c2ccc3nncn3c2)C12CCCC2 (centres undefined) | -17% | 2.11 |  |
| OCc1cn([C@H]2CCCN(CCC3CCCCCC3)C2)nn1 | -1% | 0.14 |  |
| CS(=O)(=O)N1CCC[C@@H]1CNc1ccc(C#N)cn1 | 0% | -0.03 |  |
| O=C(Cc1ccccn1)N1CC[C@H](C2CCCCC2)C1 | 7% | -0.92 |  |
| CN(CC(CC1CC1)NC(=O)OC(C)(C)C)[C@@H]1COC[C@H]1O (some centres undefined) | 8% | -1.06 |  |
| O=C(c1ccc2c(c1)CN(C(=O)c1ccccn1)CCO2)N1CCOCC1 | -1% | 0.2 |  |
| O=S(=O)(Nc1ccccc1-c1ccc2ccccc2n1)c1ccc(Cl)cc1 | 8% | -0.97 |  |
| COc1ccc(CCOc2ccc([C@H]3CC(O)=Nc4c3c(C)nn4-c3ncnc4[nH]cnc34)cc2)cc1 | -6% | 0.79 |  |
| C#Cc1cccc(NC(=O)N(CCO)CCCC)c1 | 2% | -0.24 |  |
| CC1CN(C(=O)c2cc3nccc(-c4ccc(F)cc4)n3n2)CC(C)O1 (centres undefined) | -9% | 1.4 |  |
| Nc1ccc2c(c1)OCCOCCOc1cc(N)ccc1OCCO2 | -12% | 2.32 |  |
| O=C(NCc1ccc(-c2nc3ccccc3o2)cc1)c1ccccc1Cl | -13% | 1.98 |  |
| Cc1cccc(-c2noc(-c3sccc3S(=O)(=O)N(C)c3ccc(C)c(C)c3)n2)c1 | -6% | 0.79 |  |
| O=C(NCCN1CCCCC1)[C@H]1CCCN(c2nnc3ccc(C(F)(F)F)cn23)C1 | -20% | 3.45 |  |
| O=C(c1coc(COc2cccc(F)c2)n1)N1CCCCCC1 | -24% | 2.15 |  |
| O=c1c(S(=O)(=O)N2CCCC2)cccn1Cc1noc(Cc2ccccc2)n1 | -1% | 0.15 |  |
| O=C(Cn1ccnc1C(O)c1ccccc1)NCC1CCCO1 (centres undefined) | -6% | 1.09 |  |
| COCCNCCOCCOc1ccccc1 | -14% | 2.2 |  |

| SMILES | % Inhibition | Z score | % Inhibition (2 µM) |
| --- | --- | --- | --- |
| CCc1c(C)noc1NC(=O)C[C@H]1C(=O)N(C)C(=O)N1C | -6% | 1.12 |  |
| CCN1CCCC[C@@H]1Cn1cnc(-c2ccccc2)c1-c1ccc(C#CCO)s1 | -10% | 1.86 |  |
| Cc1cccc(O[C@H]2CCN(C(=O)Cn3cnc4ccccc4c3=O)C2)n1 | -14% | 2.61 |  |
| COc1nn(C)cc1C(=O)N1CCC(N2c3ccccc3N(C)S2(=O)=O)CC1 | 4% | -0.5 |  |
| O=C(c1cc(=O)c(OCc2ccccc2)c[nH]1)N1CCCC1 |  |  | -12% and -2% |
| CCn1ncc(C)c1NC(=O)N1CCC(F)(F)C[C@@H]1C | -8% | 1.21 |  |
| Cc1ccc(-c2cc(O)c3c(c2)CN(CCn2ccnc2C)CCO3)cc1 | -11% | 1.04 |  |
| COCC(C)(C)C(=O)Nc1ccncc1Br | 1% | -0.11 |  |
| Cc1cc(C)n(Cc2nc(-c3ccoc3)no2)n1 | -13% | 1.28 |  |
| COc1ccc(Nc2nnc(-c3ccc(C)cc3)c3ccccc23)cc1C(=O)N1CCCCC1 | 17% | -2.16 |  |
| CN(CCCNC(=O)Cc1cccnc1)c1ccc(F)cc1 | -10% | 1.37 |  |
| Cn1ccc(NCC(C)(C)CCC#N)n1 | 3% | -0.4 |  |
| COc1cc(OC)c(N2C[C@@H](C(=O)N3CC(=O)Nc4ccccc43)CC2=O)cc1Cl | -13% | 1.85 |  |
| CC(C)n1ccnc1CN1CCCn2nc(CNC(=O)N(C)C)cc2C1 | 0% | 0.03 |  |
| CCNC(=O)[C@H]1CCN(c2nc(-c3ccccc3)nc3c2CCNC3)C1 | -6% | 0.72 |  |
| COc1ccccc1N1CCN(C(=O)C2CC2c2ccco2)CC1 (centres undefined) | -3% | 0.41 |  |
| COc1ccccc1N1CCN(C(=O)Cc2csc(-n3nc(C)c(Cl)c3C)n2)CC1 | -10% | 1.87 |  |
| O=C(CCc1nc(-c2ccc(S(=O)(=O)N3CCCC3)cc2)no1)N1CCCC1 | 0% | 0.05 |  |
| Cc1ccccc1C(=O)NCC(=O)N1CCC(C2CCCC2)CC1 | 28% | -3.82 |  |
| CCCNC(=O)COc1c(Cl)cccc1CCC(=O)OC | -2% | 0.22 |  |
| CN1CCC2(CC1)CN(c1ncnc3c1cnn3C)Cc1ccccc12 | -4% | 0.67 |  |
| O=C(c1ccccc1F)N1CCN(C(=O)c2nnn3c2CO[C@H](c2ccc(Cl)cc2)C3)CC1 | -24% | 2.19 |  |
| COc1cc(Cl)c(CNC(C)(C)CO)cc1OC | 4% | -0.67 |  |
| Cc1ccncc1CN(C)c1ccnc(C#N)c1 | 1% | -0.18 |  |
| CC(C)n1ccc(CNC(=O)N[C@@H](C)CCc2cccn2C)n1 | 2% | -0.41 |  |
| CCOc1cc(C(=O)CC#N)cc(OCC)c1OCC | -3% | 0.41 |  |
| C[C@@H]1CN(Cc2nnnn2CC(=O)N2CCCCCCC2)C[C@H](C)O1 | -6% | 1.11 |  |
